From PubChem BioAssay AID2451 (National Center for Advancing Translational Sciences (NCATS), 2010)
In all, about 290,000 compounds went through this assay and about 2,100 (0.72%) were called active. This list was built around the results that the source calls inconclusive (neither active nor inactive); the mix of calls is not that of the screen. Calls follow the shape of the dose curve; as a rule, active = well fitted inhibition curve with a large enough effect; inconclusive = small, poorly fitted or top-dose-only effect, or effect the other way; inactive = flat fitted curve, though single readings scatter. A potency beside an inconclusive call is a rough fit, not a confirmed value.
% is scaled to controls: 0 for no effect and ±100 for the full control effect; potency is read from the fitted curve at half-maximal effect; tags tell the direction and shape of the fitted curve.
Also: nearly all actives have a fitted effect of over 55% in size.

Each compound was assayed against Fructose-bisphosphate aldolase (Giardia intestinalis (strain ATCC 50803 / WB clone C6)) (UniProt A8B2U2) (assay: qHTS Assay for Inhibitors of Fructose-1,6-bisphosphate Aldolase from Giardia Lamblia). Conditions: purified Giardia FBPA; activity, negative = inhibition: at 59.6 µM (top of the series) unless noted.
UniProt A8B2U2, sequence (A8B2U2 whole entry, looked up): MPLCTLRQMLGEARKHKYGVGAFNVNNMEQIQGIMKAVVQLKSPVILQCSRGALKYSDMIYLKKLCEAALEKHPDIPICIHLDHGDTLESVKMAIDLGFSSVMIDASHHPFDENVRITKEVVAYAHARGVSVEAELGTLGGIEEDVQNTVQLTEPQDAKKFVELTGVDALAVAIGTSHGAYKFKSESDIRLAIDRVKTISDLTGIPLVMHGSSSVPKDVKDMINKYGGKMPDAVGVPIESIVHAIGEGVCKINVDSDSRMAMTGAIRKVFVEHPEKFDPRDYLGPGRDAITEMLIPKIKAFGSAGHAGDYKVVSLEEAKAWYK
Outline: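 40 nM FBPA preincubated 10 min at RT with compound (up to 57.5 uM final), then substrate plus GAPDH/TPI/NAD/arsenate coupling and diaphorase/resazurin added. Fluorescence read after 20 min at RT, 525/598 nm.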
In the case of CCc1ccc(NC(=O)CSc2n[nH]c(C)c2[N+](=O)[O-])cc1, the “activity, negative = inhibition” value was inactive: 2.78%.
For COc1cc(=O)n(C)c2cc(N(C)C)ccc12, the Potency was inconclusive: 19.9 µM [inhibitor, single point].
Clc1ccc(OCCCNCc2ccccc2)c2ccccc12 was tested, and the Potency was inconclusive: 14.1 µM [inhibitor, partial curve].
For Cc1nn(C)c(C)c1C1C(C#N)=C(N)Oc2n[nH]c(C)c21 (stereo not drawn), the Potency was inconclusive: 5 µM [activator, single point].
For COc1ccc(C(=O)NC(=O)COC(=O)c2ccc3ncsc3c2)cc1, the Potency was inconclusive: 15.8 µM [activator, single point].
CCOC(=O)C1=C(C)OC(N)=C(C#N)C1c1ccsc1 (stereo not drawn) was tested, and the Potency was inconclusive: 15.8 µM [inhibitor, single point].
Cc1cccc(OCC(=O)OC(C)CN2CCCCC2)c1 (stereo not drawn) was tested, and the Potency was inconclusive: 31.6 µM [inhibitor, single point].
For O=C(Cc1ccccc1)N1CCN(C2CCCCCC2)CC1, the Potency was inconclusive: 19.9 µM [inhibitor, partial curve].
CCOc1ccc(C2(C)NC(=O)N(CCN(C)C)C2=O)cc1 (stereo not drawn) was tested, and the Potency was inconclusive: 39.8 µM [inhibitor, single point].
With Brc1ccc(C2Nc3cccc4cccc(c34)N2)s1 the Potency was inconclusive: 5 µM [inhibitor, full curve, poor fit].
In the case of CCOc1ccc2c(c1)C(C)=CC(C)(C)N2C(=O)Nc1ccccc1F, the Potency was inconclusive: 19.9 µM [inhibitor, partial curve].
Cc1nnc(C)c2c(C)n(C(c3ccccc3)c3ccccc3)c(C)c12 was tested, and the Potency was inconclusive: 11.2 µM [inhibitor, partial curve].
For C=CCNCC#CCOc1ccc(OC)cc1, the Potency was inconclusive: 19.9 µM [inhibitor, partial curve].
CN(C)CCOC1c2ccccc2-c2ccccc21 was tested, and the Potency was inconclusive: 12.6 µM [inhibitor, partial curve].
For COC(=O)c1ccc(Cl)c(NC(=O)CSc2nnc(-c3ccncc3)o2)c1, the Potency was inconclusive: 22.4 µM [inhibitor, partial curve].
NS(=O)(=O)c1ccc(N=Nc2ccc(O)c3ncccc23)cc1 was tested, and the Potency was inconclusive: 3.16 µM [activator, single point].
For COc1ccc(Cn2c(SCC#N)nc3ccc(N4CCOCC4)cc3c2=O)cc1, the Potency was inconclusive: 7.06 µM [inhibitor, partial curve].
CC(C)CCN(CCC(C)C)C(CO)(CO)CO was tested, and the Potency was inconclusive: 11.2 µM [inhibitor, partial curve].
For CC(c1ccccc1C(O)c1ccccc1)N(C)C (stereo not drawn), the “activity, negative = inhibition” value was inactive: -3.65%.
Oc1ccc2c3c1O[C@H]1c4oc5ccccc5c4C[C@@]4(O)[C@@H](C2)N(CC2CC2)CC[C@]314 was tested, and the “activity, negative = inhibition” value was inactive: 1.04%.
For Cc1sc2ncnc(Sc3nnnn3-c3ccc(Cl)cc3)c2c1C, the “activity, negative = inhibition” value was inactive: 7.39%.
In the case of CCC(Sc1nc2ncccc2[nH]1)C(=O)NC1CCCC1 (stereo not drawn), the Potency was inconclusive: 15.8 µM [inhibitor, partial curve].
With Cc1cc(NC(=O)CCC(=O)N(CC(=O)NCC2CCCO2)c2ccccc2)no1 (stereo not drawn) the Potency was inconclusive: 35.5 µM [activator, single point].
For CCN(CC)CCCSc1nc2ccccc2s1, the Potency was inconclusive: 7.06 µM [inhibitor, partial curve].
CCCCc1cc(=O)oc2cc(OCC(=O)N3CCC(C(=O)O)(c4ccccc4)CC3)ccc12 was tested, and the activity, negative = inhibition was inconclusive: 30.6% [activator].
In the case of COc1ccc2ccccc2c1C(=O)/C=C\c1ccoc1, the Potency was inconclusive: 17.7 µM [inhibitor, partial curve].
O=C(O)CCSCC(=O)Nc1c(C(=O)C2CC2)oc2ccccc12 was tested, and the Potency was inconclusive: 17.7 µM [activator, single point].
For Cc1cc(NC(=O)c2nn3cccnc3c2Cl)no1, the “activity, negative = inhibition” value was inactive: -8.08%.
With O=C(NCCCN1CCCC1)c1ccc2c(c1)N(Cc1ccccc1)CCS2 the Potency was inconclusive: 19.9 µM [inhibitor, single point].
With COc1cc(/C=C2/C(=O)N(c3ccc(C(=O)O)cc3)N=C2C)cc(OC)c1O the Potency was inconclusive: 14.1 µM [inhibitor, partial curve].
CCN(CC)c1ccc(CN(C)CCc2ccc(OC)c(OC)c2)cc1 was tested, and the Potency was inconclusive: 17.7 µM [inhibitor, single point].
Cn1cnnc1SCC(=O)Nc1sc2c(c1C#N)CCCCC2 was tested, and the Potency was inconclusive: 12.6 µM [inhibitor, partial curve].
For CCOC(=O)c1c(NC(=S)Nc2ccc(OCC)cc2)sc2c1CCN(C)C2, the Potency was inconclusive: 19.9 µM [inhibitor, partial curve].
In the case of O=C(CS(=O)c1ccc(Br)cc1)N1CCOCC1 (stereo not drawn), the Potency was inconclusive: 39.8 µM [activator, single point].
With CN(C)c1ccc(-c2n(C)c3ccccc3[n+]2C)cc1 the Potency was inconclusive: 17.7 µM [inhibitor, single point].
With COCCCN1C(=O)/C(=C/c2ccc(CNS(=O)(=O)c3ccccc3)o2)C(C(=O)OC)=C1C the Potency was inconclusive: 15.8 µM [inhibitor, single point].
For CN(C)S(=O)(=O)c1ccc(C(=O)Nc2nnc(-c3cccs3)o2)cc1, the Potency was active: 17.7 µM.
With O=C(O)/C=C/C(=O)Nc1ccc(N2CCOCC2)nc1N1CCOCC1 the Potency was inconclusive: 7.92 µM [inhibitor, partial curve].
With Cc1c(C(=O)O)cccc1-n1c(C)cc(/C=N/Nc2ccc([N+](=O)[O-])cn2)c1C the Potency was inconclusive: 15.8 µM [inhibitor, single point].
For CCCCc1ccc(/C=C2\C(=O)c3ccccc3C(O)=C2C(=O)OCC)cc1, the Potency was inconclusive: 15.8 µM [inhibitor, partial curve].
In the case of Cc1nnc(SCC(=O)c2cc(C)n(-c3ccc4c(c3)OCO4)c2C)s1, the Potency was inconclusive: 17.7 µM [inhibitor, partial curve].
In the case of COc1ccc(Br)cc1CN1CCSCC1, the Potency was inconclusive: 14.1 µM [inhibitor, partial curve].
With O=C1CSC(=S)N1/N=C/c1cccc(C(F)(F)F)c1 the “activity, negative = inhibition” value was inactive: -10.4%.
